Positions count from the first letter of the chain named. In names and notes the source's numbering stands. ± gives the standard deviation of the averaged measurements. Laboratory Escherichia coli strains with one amino-acid change in an essential protein, pooled on minimal glucose agar with carbenicillin or gentamicin at twice the control MIC (plus kanamycin and chloramphenicol for the plasmids), 48 h. Fold change of barcode share against drug-free plates; higher = less susceptible. Active = above 20 in both replicates (the paper's putatively resistant). '<' = one read or none on drug, '>' = one read or none on a drug-free plate. Shares are relative, so most strains fall below 1 when a few take over. Listed are strains with at least 15 reads on both drug-free plates, and hits; most hits rest on fewer reference reads. Replicate rank correlation about 0.5. Edits are read from barcodes.
B1: murA M170A (protein)
chain: MDKFRVQGPTKLQGEVTISGAKNAALPILFAALLAEEPVEIQNVPKLKDVDTSMKLLSQLGAKVERNGSVHIDARDVNVFCAPYDLVKTMRASIWALGPLVARFGQGQVSLPGGCTIGARPVDLHISGLEQLGATIKLEEGYVKASVDGRLKGAHIVMDKVSVGATVTIACAATLAEGTTIIENAAREPEIVDTANFLITLGAKISGQGTDRIVIEGVERLGGGVYRVLPDRIETGTFLVAAAISRGKIICRNAQPDTLDAVLAKLRDAGADIEVGEDWISLDMHGKRPKAVNVRTAPHPAFPTDMQAQFTLLNLVAEGTGFITETVFENRFMHVPELSRMGAHAEIESNTVICHGVEKLSGAQVMATDLRASASLVLAGCIAEGTTVVDRIYHIDRGYERIEDKLRALGANIERVKGE
B2: murA M170W (protein)
chain: B1 chain with A170W
B3: murA M170Q (protein)
chain: B1 chain with A170Q
B4: mukE V95Q (protein)
chain: MSSTNIEQVMPVKLAQALANPLFPALDSALRSGRHIGLDELDNHAFLMDFQEYLEEFYARYNVELIRAPEGFFYLRPRSTTLIPRSVLSELDMMQGKILCYLYLSPERLANEGIFTQQELYDELLTLADEAKLLKLVNNRSTGSDVDRQKLQEKVRSSLNRLRRLGMVWFMGHDSSKFRITESVFRFGADVRAGDDPREAQRRLIRDGEAMPIENHLQLNDETEENQPDSGEEE
B5: mukE L109P (protein)
chain: B4 chain with Q95V, L109P
B6: murD V211A (protein)
chain: MADYQGKNVVIIGLGLTGLSCVDFFLARGVTPRVMDTRMTPPGLDKLPEAVERHTGSLNDEWLMAADLIVASPGIALAHPSLSAAADAGIEIVGDIELFCREAQAPIVAITGSNGKSTVTTLVGEMAKAAGVNVGVGGNIGLPALMLLDDECELYVLELSSFQLETTSSLQAVAATILNVTEDHMDRYPFGLQQYRAAKLRIYENAKVCVANADDALTMPIRGADERCVSFGVNMGDYHLNHQQGETWLRVKGEKVLNVKEMKLSGQHNYTNALAALALADAAGLPRASSLKALTTFTGLPHRFEVVLEHNGVRWINDSKATNVGSTEAALNGLHVDGTLHLLLGGDGKSADFSPLARYLNGDNVRLYCFGRDGAQLAALRPEVAEQTETMEQAMRLLAPRVQPGDMVLLSPACASLDQFKNFEQRGNEFARLAKELG
B7: murD V211D (protein)
chain: B6 chain with A211D
B8: murG V99A (protein)
chain: MSGQGKRLMVMAGGTGGHVFPGLAVAHHLMAQGWQVRWLGTADRMEADLVPKHGIEIDFIRISGLRGKGIKALIAAPLRIFNAWRQARAIMKAYKPDVALGMGGYVSGPGGLAAWSLGIPVVLHEQNGIAGLTNKWLAKIATKVMQAFPGAFPNAEVVGNPVRTDVLALPLPQQRLAGREGPVRVLVVGGSQGARILNQTMPQVAAKLGDSVTIWHQSGKGSQQSVEQAYAEAGQPQHKVTEFIDDMAAAYAWADVVVCRSGALTVSEIAAAGLPALFVPFQHKDRQQYWNALPLEKAGAAKIIEQPQLSVDAVANTLAGWSRETLLTMAERARAASIPDATERVANEVSRVARA
B9: murG V99Q (protein)
chain: B8 chain with A99Q
B10: murG V121D (protein)
chain: B8 chain with A99V, V121D
B11: murG V121A (protein)
chain: B8 chain with A99V, V121A
B12: murC V137Q (protein)
chain: MNTQQLAKLRSIVPEMRRVRHIHFVGIGGAGMGGIAEVLANEGYQISGSDLAPNPVTQQLMNLGATIYFNHRPENVRDASVVVVSSAISADNPEIVAAHEARIPVIRRAEMLAELMRFRHGIAIAGTHGKTTTTAMQSSIYAEAGLDPTFVNGGLVKAAGVHARLGHGRYLIAEADESDASFLHLQPMVAIVTNIEADHMDTYQGDFENLKQTFINFLHNLPFYGRAVMCVDDPVIRELLPRVGRQTTTYGFSEDADVRVEDYQQIGPQGHFTLLRQDKEPMRVTLNAPGRHNALNAAAAVAVATEEGIDDEAILRALESFQGTGRRFDFLGEFPLEPVNGKSGTAMLVDDYGHHPTEVDATIKAARAGWPDKNLVMLFQPHRFTRTRDLYDDFANVLTQVDTLLMLEVYPAGEAPIPGADSRSLCRTIRGRGKIDPILVPDPARVAEMLAPVLTGNDLILVQGAGNIGKIARSLAEIKLKPQTPEEEQHD
B13: murC V401P (protein)
chain: B12 chain with Q137V, V401P

Biological target: Escherichia coli (laboratory strain)
Assay: barcode share on antibiotic plates over drug-free plates; higher = less susceptible
Details: antibiotic: gentamicin; 2× MIC (MIC 0.45 µg/mL)
Experimental: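 A pool of E. coli strains, each edited to carry one amino-acid change in an essential protein, was grown for 48 h on minimal glucose agar with or without antibiotic; strain barcodes were sequenced; mean of two replicates.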

| Protein | fold change of barcode share |
| --- | --- |
| B1 | < 0.0206 |
| B2 | < 0.00927 |
| B3 | 0.0142 ± 0.0087 |
| B4 | < 0.0161 |
| B5 | < 0.0195 |
| B6 | < 0.0107 |
| B7 | < 0.0147 |
| B8 | 0.0491 ± 0.063 |
| B9 | 0.015 ± 0.0076 |
| B10 | < 0.00399 |
| B11 | 0.00569 ± 0.0019 |
| B12 | < 0.0116 |
| B13 | < 0.014 |

Source: the supplement of paper PMC11876631
